Test results reported in PubChem BioAssay AID504339 (National Center for Advancing Translational Sciences (NCATS), 2011).
The whole screen tested about 390,000 compounds, of which about 17,000 (4.4%) were called active. This list was built around the results that the source calls inconclusive (neither active nor inactive); the mix of calls is not that of the screen. The call rests on the fitted dose curve; in most records, active means well fitted inhibition curve with a large enough effect; inconclusive means small, poorly fitted or top-dose-only effect; inactive means no such curve, though single readings can be large or run the other way. Potencies of inconclusive entries are doubtful fits and often do not repeat.

Each compound was assayed against Lysine-specific demethylase 4A (Homo sapiens) (UniProt O75164) (assay: qHTS Assay for Inhibitors of JMJD2A-Tudor Domain). Details: AlphaScreen JMJD2A-Tudor / H3K4me3 peptide binding; activity change, negative = inhibition: at 114 µM (top of the series).
Sequence of UniProt O75164 (O75164 whole entry, looked up, the tested form may be a part): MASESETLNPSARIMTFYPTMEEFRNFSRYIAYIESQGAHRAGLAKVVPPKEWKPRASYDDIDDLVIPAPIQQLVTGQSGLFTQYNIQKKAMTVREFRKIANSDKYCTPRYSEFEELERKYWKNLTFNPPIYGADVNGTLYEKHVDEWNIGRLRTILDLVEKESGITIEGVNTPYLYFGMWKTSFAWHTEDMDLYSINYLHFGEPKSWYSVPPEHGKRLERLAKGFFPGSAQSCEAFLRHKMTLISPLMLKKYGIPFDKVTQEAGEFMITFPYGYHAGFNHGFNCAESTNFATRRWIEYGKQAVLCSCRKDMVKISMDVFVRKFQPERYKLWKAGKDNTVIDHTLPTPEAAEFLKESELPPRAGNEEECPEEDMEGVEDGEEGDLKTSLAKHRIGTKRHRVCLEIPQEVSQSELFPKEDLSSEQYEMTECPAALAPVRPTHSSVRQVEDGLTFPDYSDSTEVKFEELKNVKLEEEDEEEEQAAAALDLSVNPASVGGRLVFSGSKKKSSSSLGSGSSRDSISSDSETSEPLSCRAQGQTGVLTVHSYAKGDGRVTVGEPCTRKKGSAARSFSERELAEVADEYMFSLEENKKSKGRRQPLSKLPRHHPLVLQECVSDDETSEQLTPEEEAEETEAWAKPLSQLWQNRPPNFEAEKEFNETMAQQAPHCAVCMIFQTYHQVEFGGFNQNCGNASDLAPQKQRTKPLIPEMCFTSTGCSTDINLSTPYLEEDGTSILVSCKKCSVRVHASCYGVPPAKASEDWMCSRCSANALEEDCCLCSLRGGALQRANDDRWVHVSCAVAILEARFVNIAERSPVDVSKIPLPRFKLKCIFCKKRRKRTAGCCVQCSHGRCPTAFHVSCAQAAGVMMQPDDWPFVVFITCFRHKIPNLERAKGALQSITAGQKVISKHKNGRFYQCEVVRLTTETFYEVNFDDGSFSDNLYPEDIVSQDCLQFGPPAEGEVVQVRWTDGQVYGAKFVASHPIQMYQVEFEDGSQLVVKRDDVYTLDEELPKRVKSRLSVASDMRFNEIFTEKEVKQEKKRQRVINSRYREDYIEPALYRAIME
Further: nearly all actives have a fitted effect of over 50% in size.
On the % scale 0 is the no-effect control and ±100 the full control effect; potency means the concentration at half of the fitted maximal effect; tags describe the fitted curve by direction and shape.

Row | Structure (SMILES) | Potency | activity change, negative = inhibition
1 | O=C(COc1ccccc1)NCC(c1ccco1)N1CCN(c2ccc(F)cc2)CC1 (stereo unspecified) | inconclusive: 44.7 µM [inhibitor, partial curve] | 
2 | COc1cc(CN2CCCC(C(=O)c3ccc(C(C)(C)C)cc3)C2)cc(OC)c1O (stereo unspecified) | inconclusive: 79.4 µM [inhibitor, partial curve] | 
3 | COc1cc(CNCc2cc(OC)ccc2OC)cc(OC)c1 | active: 28.2 µM | 
4 | Cc1ccc(CN2C(=O)C(C)Nc3ncnc(N4CCOCC4)c32)cc1 (stereo unspecified) | inconclusive: 79.4 µM [inhibitor, partial curve] | 
5 | CN(C)c1ccc(CNC(=O)CN2C(=O)CCn3nc(-c4cn(C)c5ccccc45)cc32)cc1 | active: 50.1 µM | 
6 | COc1ccc(NC(=S)NC2CC3CCC(C2)N3Cc2ccco2)cc1 (stereo unspecified) |  | inactive: -15.2%
7 | Cc1ccc(CNC(=O)CN2C(=O)CSc3ccc(S(=O)(=O)N4CCCC4)cc32)cc1 |  | inactive: -11%
8 | CCC1Sc2ccc(S(=O)(=O)CCC(=O)NCc3ccc(C)o3)cc2NC1=O (stereo unspecified) | inconclusive: 50.1 µM [inhibitor, partial curve] | 
9 | CC(C)(C)c1ccc(-c2n[nH]c(=S)n2CC2CCCO2)cc1 (stereo unspecified) | active: 31.6 µM | 
10 | c1ccc(-n2nnnc2-c2cccc3ccccc23)cc1 |  | inactive: 20.1%
11 | CCOc1ccc(NC(=S)N2CCN(S(=O)(=O)c3ccc(C)cc3)CC2)cc1 | inconclusive: 56.2 µM [inhibitor, partial curve] | 
12 | Cc1nc(-c2ccccc2)sc1-c1nc(-c2ccncc2)ncc1S(=O)(=O)c1ccccc1 | inconclusive: 20 µM [inhibitor, partial curve] | 
13 | O=C(CSc1ccccn1)Nc1nncs1 | inconclusive: 11.2 µM [inhibitor, partial curve] | 
14 | CN(C)C(=O)c1ccc2c(c1)C1C3CCC(C3)C1C(c1ccccc1)N2 (stereo unspecified) | inconclusive: 100 µM [inhibitor, partial curve] | 
15 | COc1ccc(Br)cc1CN1CCN(C(=O)c2ccco2)CC1 | active: 7.08 µM | 
16 | Cc1cc(OCC(=O)Nc2cc(S(=O)(=O)N3CCOCC3)ccc2N2CCCC2)ccc1C(C)C |  | inconclusive: -40% [inhibitor]
17 | Cc1c(N2C(=O)/C(=C/c3cccc4ccccc34)SC2=S)c(=O)n(-c2ccccc2)n1C | inconclusive: 14.1 µM [inhibitor, full curve] | 
18 | Cc1cccc(-n2c(=O)[nH]c3c(C(N)=O)nc(-c4ccccc4Cl)nc32)c1 | inconclusive: 89.1 µM [inhibitor, partial curve] | 
19 | O=C(O)c1cc(N2C(=O)C=CC2=O)cc(N2C(=O)C=CC2=O)c1 | active: 2.24 µM | 
20 | COC(=O)c1c(NC(=O)COc2ccc(Cl)cc2C)sc2c1CCCCC2 |  | inactive: -9.15%
21 | CCOc1ccc(/C=C2\CCc3ccccc3C2=O)cc1 |  | inactive: -6.85%
22 | CSc1cccc(NC(=O)CC(c2ccc(F)cc2)N2Cc3ccccc3C2=O)c1 (stereo unspecified) |  | inactive: -14.8%
23 | Cc1cccc(Nc2nc(NCc3ccco3)c3ccccc3n2)c1 | inconclusive: 70.8 µM [inhibitor, single point] | 

Row | Structure (SMILES) | Potency | activity change, negative = inhibition
24 | COc1ccc(N2CCN(C(=O)CCc3c(C)nc4cc(-c5cccc(F)c5)nn4c3C)CC2)cc1 |  | inactive: -1.01%
25 | O=C(/C=C/c1ccc(F)cc1)NC(=S)NNC(=O)c1cnccn1 | active: 7.94 µM | 
26 | O=C(CCNC(=O)c1ccccc1)OCC(=O)c1ccccc1 | inconclusive: 35.5 µM [inhibitor, single point] | 
27 | CC(C)(C)c1ccc(O)c(/C=N\O)c1 | inconclusive: 79.4 µM [inhibitor, single point] | 
28 | CCOC(=O)c1cnc2c(ccc3ccccc32)c1Nc1ccc(OC)cc1OC | inconclusive: 56.2 µM [inhibitor, partial curve] | 
29 | CN(C(=O)c1ccc(S(=O)(=O)c2cccc(Cl)c2)c([N+](=O)[O-])c1)C1CCCCC1 | inconclusive: 17.8 µM [inhibitor, partial curve] | 
30 | Cc1cc2ncc(S(C)(=O)=O)c(N)n2n1 | active: 12.6 µM | 
31 | COC(=O)C(NC(=O)c1ccccc1)=C(C)C |  | inactive: -28.8% [at 11.4 µM]
32 | COc1cc2c(cc1OC)CN(c1ccc([N+](=O)[O-])cc1C#N)CC2 | inconclusive: 50.1 µM [inhibitor, partial curve] | 
33 | CCOc1ccc(-n2c(-c3ccco3)n[nH]c2=S)cc1 | active: 5.62 µM | 
34 | Cc1cc(=O)[nH]c(NN=C2CCCCC2C)n1 (stereo unspecified) | active: 0.891 µM | 
35 | COc1ccc(Br)cc1C1CC(=O)N2CN(Cc3ccccc3)CSC2=C1C#N (stereo unspecified) | inconclusive: 44.7 µM [inhibitor, partial curve] | 
36 | O=c1[nH]c(Sc2ccc([N+](=O)[O-])cc2[N+](=O)[O-])nc2ccccc12 | inconclusive: 56.2 µM [inhibitor, partial curve] | 
37 | O=C(COC(=O)c1ccc(S(=O)(=O)NCc2ccco2)cc1)Nc1ccc(Cl)cn1 | inconclusive: 44.7 µM [inhibitor, partial curve] | 
38 | Cc1cc(C(=O)Nc2nc3ccc(Cl)cc3s2)nn1C | active: 25.1 µM | 
39 | c1ccc2c(c1)CCN2CCN1CCc2ccccc21 |  | inactive: -29%
40 | Cc1ccccc1C([O-])=Nc1ccc[n+](-c2nc3ccccc3nc2NS(=O)(=O)c2ccccc2)c1 | inconclusive: 56.2 µM [inhibitor, partial curve] | 
41 | Cc1cccc(N2CCN(C(=O)CCCn3ncn4c(cc5occc54)c3=O)CC2)c1C | inconclusive: 20 µM [inhibitor, single point] | 
42 | COc1cc(OC)cc(C(=O)N[C@@H](CCSC)c2nc3ccccc3[nH]2)c1 | inconclusive: 39.8 µM [inhibitor, single point] | 
43 | Cc1csc(NC(=O)c2ccc(COc3ccccc3)o2)n1 | inconclusive: 0.891 µM [inhibitor, full curve, poor fit] | 
44 | COc1ccccc1N1CCN(c2nc3ccccc3nc2C(C#N)C(=O)OC(C)C)CC1 (stereo unspecified) | inconclusive: 11.2 µM [inhibitor, full curve, poor fit] | 
45 | O=C(O)c1ccc(Cn2cnc3c(=S)nc[nH]c32)cc1 | active: 3.55 µM | 
46 | Nc1ccccc1C(=O)N=Nc1[nH]c(N)c2ccccc12 | active: 79.4 µM | 
